Experimental data: PubChem BioAssay AID624417 (National Center for Advancing Translational Sciences (NCATS), 2012)
Screen size: about 410,000 compounds; about 6,400 (1.6%) were called active. The shares of active, inactive and inconclusive entries below differ from those in the screen. Calls follow the shape of the dose curve; as a rule, active = well fitted inhibition curve with a large enough effect; inconclusive = small, poorly fitted or top-dose-only effect; inactive = no such curve, though single readings can be large or run the other way. Potencies of inconclusive entries are doubtful fits and often do not repeat.

target: Glucagon-like peptide 1 receptor (Homo sapiens) (UniProt P43220); assay: qHTS of GLP-1 Receptor Inverse Agonists (Inhibition Mode); conditions: HEK293 GLP-1R CRE-luciferase, luminescence, 24 h, GLP-1R form is constitutively active; activity change, negative = inhibition: at 38.3 µM (top of the series) unless noted; also: nearly all actives have a fitted effect of over 55% in size
Method in brief: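 HEK293 cells stably co-expressing a cAMP-responsive luciferase reporter and constitutively active GLP-1R were seeded, incubated 12 h, then exposed to compounds for 24 h at 37 C. Luminescence was read 12 min after detection reagent; inverse agonists lower signal.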
% is scaled to controls: 0 for no effect and ±100 for the full control effect; potency is read from the fitted curve at half-maximal effect; tags tell the direction and shape of the fitted curve.

UniProt P43220, sequence (P43220 whole entry, looked up): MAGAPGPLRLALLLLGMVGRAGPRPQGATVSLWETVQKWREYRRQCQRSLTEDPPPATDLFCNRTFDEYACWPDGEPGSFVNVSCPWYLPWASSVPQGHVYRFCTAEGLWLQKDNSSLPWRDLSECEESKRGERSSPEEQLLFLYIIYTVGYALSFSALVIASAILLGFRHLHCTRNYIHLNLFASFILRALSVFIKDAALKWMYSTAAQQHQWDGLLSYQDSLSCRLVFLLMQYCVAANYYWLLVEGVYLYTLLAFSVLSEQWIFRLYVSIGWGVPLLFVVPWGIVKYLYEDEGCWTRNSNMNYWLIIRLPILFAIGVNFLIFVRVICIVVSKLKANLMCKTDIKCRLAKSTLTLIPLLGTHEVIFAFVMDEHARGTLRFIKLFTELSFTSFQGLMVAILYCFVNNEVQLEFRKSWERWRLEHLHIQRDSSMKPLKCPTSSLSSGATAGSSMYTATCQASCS

Potency, inconclusive:
CCOc1ccccc1NC(=O)c1c(NCc2ccc(OC)c(OC)c2OC)sc2c1CCC(C)C2 (configuration not stated) 12.6 µM [inhibitor, single point], O=C(N/N=C/c1cccc(O)c1)c1ccc(NC(=O)c2cccc([N+](=O)[O-])c2)cc1 14.1 µM [inhibitor, single point], Cc1cccc(C)c1OCc1cc(C(=O)N2CCN(C3CCCC3)CC2)no1 28.2 µM [inhibitor, single point], CC1CCCC(NS(=O)(=O)c2ccc3c(c2)OCCO3)C1C (configuration not stated) 28.2 µM [inhibitor, single point], CC(C)(C)c1ccc(Cn2nnc3c(=O)[nH]c(C4CCCN(C(=O)c5ccco5)C4)nc32)cc1 (configuration not stated) 28.2 µM [inhibitor, single point], Cc1ccc(S(=O)(=O)N2CCC(=O)N(C(COCc3ccc(C(F)(F)F)cc3)C(C)C)CC2)cc1 (configuration not stated) 10 µM [inhibitor, single point], Cc1cccc2c1cnn2C(=O)CCC(=O)N1CCC(C)CC1 28.2 µM [inhibitor, single point], CCN=C(Nc1cccc(F)c1)SC1CC(=O)N(c2ccc(OC)cc2)C1=O (configuration not stated) 28.2 µM [inhibitor, single point], Fc1ccc(Nc2nc(-c3cccnc3)cs2)cc1 28.2 µM [inhibitor, single point], CC(C)CCn1nc(C(=O)Nc2nc3c(s2)CCCC3)c2ccccc2c1=O 2.82 µM [inhibitor, partial curve, poor fit], CCc1ccc(OC)c(S(=O)(=O)NCc2cccs2)c1 28.2 µM [inhibitor, single point], O=C(CN1CCCCC1)Nc1cccc(Oc2ccccc2)c1 28.2 µM [inhibitor, single point], Cc1ccc(NC(=O)c2cccc(OCc3c(C)noc3C)c2)cc1S(=O)(=O)Nc1ccccc1Cl 11.2 µM [inhibitor, partial curve, poor fit], Cn1c(C=O)c(-c2ccc3cc[nH]c3c2)c2ccccc21 11.2 µM [inhibitor, partial curve, poor fit], CCOc1ccccc1C(=O)Nc1cc(C)ccc1NC(=O)c1ccco1 7.94 µM [inhibitor, partial curve, poor fit], Cc1ccccc1OCc1ccc(-c2nc(C#N)c(N3CCN(C)CC3)o2)o1 11.2 µM [inhibitor, partial curve], Cn1c(COc2ccc3ccccc3c2)nnc1SCC(=O)OC1CCCCC1 28.2 µM [inhibitor, single point], Cc1ccc(-n2nc3c(c2NC(=O)CCC2CCCCC2)CS(=O)C3)cc1 (configuration not stated) 4.47 µM [inhibitor, partial curve], CC(C)(C)OC(=O)NCCCCCc1nnc(SCc2ccccc2)o1 11.2 µM [inhibitor, partial curve, poor fit], COc1ccc(C2(C)ON(c3ccccc3C(F)(F)F)C2=O)cc1 (configuration not stated) 14.1 µM [inhibitor, partial curve, poor fit], CC(=O)C1=C(O)C(=O)N(c2ccc(Br)cc2)C1c1ccc(Cl)cc1 (configuration not stated) 14.1 µM [inhibitor, partial curve, poor fit], COc1ccc(NC(=O)CCn2nc(-c3ccccc3OC)c3c(C)cc(C)nc32)cc1 8.91 µM [inhibitor, partial curve, poor fit], Cc1ccc(N(C(=O)CCC(=O)Nc2cc(C)on2)C(C(=O)NC2CCCC2)c2ccccc2)cc1 (configuration not stated) 22.4 µM [inhibitor, single point], CCn1cc(C2=NC(CCSC)CO2)c2ccccc21 (configuration not stated) 6.31 µM [inhibitor, partial curve, poor fit], COc1ccc(CNC(=S)Nc2cccc(F)c2)cc1 3.98 µM [inhibitor, partial curve, poor fit], Nc1ccc(-c2nc3c(ccc4ccccc43)[nH]2)cc1 28.2 µM [inhibitor, single point], N#Cc1c(NC(=O)CSc2ccccn2)oc(-c2ccccc2)c1-c1ccccc1 10 µM [inhibitor, partial curve, poor fit], COCOc1cccc(CN2CCC(C)(Oc3cccc(OC)c3)C2)c1 (configuration not stated) 10 µM [inhibitor, partial curve]

Potency, active:
CCc1ccc(C(C(=O)NCc2ccc(OC)cc2)N(CCOC)C(=O)Cc2cccs2)cc1 (configuration not stated) 10 µM, CCCCCCN1C[C@H](O)[C@@H](n2cc(-c3ccc(F)cc3)nn2)C[C@@H]1c1ccccc1 5.01 µM, C=C(C)CCC(C)N1CCC(n2nccc2NC(=O)CCOc2ccccc2)CC1 (configuration not stated) 5.01 µM

Activity change, negative = inhibition, inconclusive:
FC(F)(F)c1cccc(CNC2c3ccccc3-c3ccccc32)c1 -81.7% [inhibitor]

Activity change, negative = inhibition, inactive:
Cc1ccc(Cl)cc1N1CCN(C(=O)c2c(C)oc3ncnc(N4CCOCC4)c23)CC1 -6.85%, Cc1ccc(C(=O)Nc2nnc(SCc3cc(=O)c4c(C)ccc(C)c4[nH]3)s2)cc1 38.8%, C[C@H](NC(=O)OC(C)(C)C)c1nnc(SCC(=O)Nc2ccc(Br)cc2)o1 -1.93%, O=C(Nc1ccc2nn(-c3ccc(F)cc3)nc2c1)c1cccc2c(Cl)cccc12 -12%, O=C(CC(c1ccccc1)c1ccccc1)NCC1CCCO1 (configuration not stated) -9.12%, Cc1ccc(-n2nc(C(=O)Nc3ccc(Cl)cn3)c3c4ccccc4n(C)c3c2=O)cc1 0.661%, Cc1ccccc1NC(=O)COC(=O)C1(C)CC1(Cl)Cl (configuration not stated) -6.35%, O=C(CCc1nnc2ccc(NCc3ccccc3)nn12)NC1CCCC1 32.2%, CCCCNC(=O)C1c2ccccc2OCC(=O)N1Cc1cccnc1 (configuration not stated) 24.2%, COc1ccc(C2C(=O)N(C3CCCCC3)CC(=O)N2CCc2ccc(OC)c(OC)c2)cc1 (configuration not stated) 5.99%
